According to PMC4336329 (PLoS ONE, 2015):
Screen size: about 310,000 compounds; about 14,000 (4.5%) showed an effect of 50% or more. Effects have a minus sign here. The list shows a part of the results.

Molecular target: human ether-à-go-go-related gene (hERG) potassium channel (human, UniProt Q12809)
Experiment: primary screen, population patch clamp on CHO cells stably expressing hERG
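Also: peak tail current of the secondary pulse compared with the same well before compound.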

Sequence of human ether-à-go-go-related gene (hERG) potassium channel (Q12809 whole entry, looked up): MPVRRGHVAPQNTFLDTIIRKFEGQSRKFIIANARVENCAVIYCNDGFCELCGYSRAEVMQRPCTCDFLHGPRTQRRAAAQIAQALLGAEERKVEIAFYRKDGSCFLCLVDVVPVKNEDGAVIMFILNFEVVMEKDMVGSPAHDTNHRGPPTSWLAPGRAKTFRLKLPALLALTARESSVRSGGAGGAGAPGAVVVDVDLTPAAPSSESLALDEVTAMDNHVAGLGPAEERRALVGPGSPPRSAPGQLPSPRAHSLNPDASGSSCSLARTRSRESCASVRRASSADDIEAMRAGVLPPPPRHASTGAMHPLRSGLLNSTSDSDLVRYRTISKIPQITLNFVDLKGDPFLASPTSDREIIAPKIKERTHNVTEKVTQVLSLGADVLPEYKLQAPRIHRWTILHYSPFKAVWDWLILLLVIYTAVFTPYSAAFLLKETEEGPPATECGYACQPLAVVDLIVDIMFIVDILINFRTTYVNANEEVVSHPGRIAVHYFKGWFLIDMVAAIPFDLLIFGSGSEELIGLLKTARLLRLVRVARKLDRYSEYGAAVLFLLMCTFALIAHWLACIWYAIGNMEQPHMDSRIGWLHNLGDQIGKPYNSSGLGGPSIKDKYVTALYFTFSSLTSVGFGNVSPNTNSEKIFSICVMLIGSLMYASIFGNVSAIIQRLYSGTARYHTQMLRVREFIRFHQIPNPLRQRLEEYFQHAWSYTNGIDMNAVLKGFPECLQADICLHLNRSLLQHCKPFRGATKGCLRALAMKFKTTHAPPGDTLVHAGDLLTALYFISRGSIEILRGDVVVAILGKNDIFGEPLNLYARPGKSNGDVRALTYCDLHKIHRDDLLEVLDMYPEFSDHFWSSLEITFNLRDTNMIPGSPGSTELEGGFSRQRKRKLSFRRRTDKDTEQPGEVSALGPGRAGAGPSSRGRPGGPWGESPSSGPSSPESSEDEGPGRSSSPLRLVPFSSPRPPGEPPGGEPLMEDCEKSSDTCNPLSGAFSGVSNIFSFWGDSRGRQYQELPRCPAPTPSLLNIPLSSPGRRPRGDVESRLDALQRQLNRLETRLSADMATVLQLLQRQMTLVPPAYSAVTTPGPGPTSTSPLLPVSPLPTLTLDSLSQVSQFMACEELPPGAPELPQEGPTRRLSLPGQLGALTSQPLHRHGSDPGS

Row | SMILES | hERG current change (%, negative = inhibition) at 10uM
1 | CCN(Cc1ccccc1)C(=O)C1CCN(Cc2sccc2C)CC1.O=C(O)C(=O)O | -44.3%
2 | C=Cn1cc[n+](CC(=O)c2ccc(C)cc2)c1.[Br-] | 3.26%
3 | COc1ccc(CCCc2nnc(SCc3nc4ccccc4c(=O)[nH]3)n2C)cc1C | -22.6%
4 | O=C(Nc1ccccc1N1CCOCC1)c1ccc(Br)o1 | 1.26%
5 | COc1ccc(NC(=O)COc2ccccc2Cc2ccccc2)cc1S(N)(=O)=O | 3.31%
6 | CCOC(=O)C(C(=O)N(C)Cc1ccccc1)C1CCCCC1 (stereo not shown) | -6.21%
7 | COc1ccc(C(=O)/C=C/c2ccc(-c3ccccc3)cc2)cc1CSCC(=O)O | 89%
8 | N#CCCN1CCN(Cn2c3ccccc3c3ccccc32)CC1 | -2.59%
9 | O=C(NC(=S)NC(c1ccccc1)c1ccncc1)c1ccccc1 (stereo not shown) | -9.71%
10 | O=C(O)c1cccnc1SCC(=O)C12CC3CC(CC(C3)C1)C2 | -1.11%
11 | O=C(Nc1ccncc1)Nc1ccc(Br)cc1Cl | 12.1%
12 | COc1ccc(/C=N/N(C)C2=NS(=O)(=O)c3ccccc32)cc1OC | 12.8%
13 | CCSc1nnc(NC(=O)CSc2nc(CC)nc3c2c(=O)n(C)c(=O)n3C)s1 | 10.4%
14 | CCOc1ccc2[nH]c(=O)c(CN(CCOC)C(=O)N3CCOCC3)cc2c1 | 13.5%
15 | Cc1ccccc1-n1ncc2c1CC(C)(C)CC2NC(=O)c1ccncc1 (stereo not shown) | -47.4%
16 | COc1ccc(CNC(=O)CCSCc2cccc(F)c2)cc1 | -11.2%
17 | CCCCNC(=S)N(C)/N=C/c1ccc(OCc2ccc(C(=O)OC)cc2)c(OC)c1 | 11.8%
18 | O=C1CC(N2CC=C(c3ccc(F)cc3)CC2)C(=O)N1c1ccc(F)cc1 (stereo not shown) | -13.9%
19 | COC(=O)c1nc2n(n1)C(c1cc(OC)ccc1OC)C(C(=O)OC1CCCCC1)=C(C)N2 (stereo not shown) | 11.4%
20 | Cl.Cn1c(=O)c2c(nc(N3CCCCC3)n2CCNC2=NCCC2)n(C)c1=O | 8.2%
21 | CC(C)(CO)NCC(O)COc1ccc2c(c1)CCC2 (stereo not shown) | 2.25%
22 | CNNC(=S)Nc1cccc(C(F)(F)F)c1 | 7.59%

Row | SMILES | hERG current change (%, negative = inhibition) at 10uM
23 | Cc1cc(NC(=O)c2ccc(F)cc2)n(-c2ccccn2)n1 | 4.22%
24 | CC(C)(C)OC(=O)NCCCCCNC(=O)c1nc[nH]c1C(=O)N1CCN(C(=O)OC(C)(C)C)CC1 | 2.67%
25 | O=C(Nc1ccc2oc(-c3ccccc3)nc2c1)c1ccco1 | 0.559%
26 | CN(Cc1ccco1)S(=O)(=O)c1nnc(NC(=O)c2ccccc2)s1 | 6.12%
27 | O=C(c1sccc1Cl)N1CCN(Cc2ccc3c(c2)OCO3)CC1 | -16.3%
28 | CCOC(=O)C1=C(O)/C(=C\c2ccc(CNC(=O)C(=O)Nc3ccccc3)o2)N=C1C | -1.87%
29 | CC(C)CN(C(=O)COC(=O)c1ccc2c(c1)OCO2)c1c(N)n(Cc2ccccc2)c(=O)[nH]c1=O | -12%
30 | Cc1ccc(S(=O)(=O)NCCCNC(=O)N2CCOCC2)cc1 | 3.86%
31 | COCCNC(=O)C1(C(F)(F)F)CC(CCCO)CCCO1 (stereo not shown) | 10.9%
32 | COCCNC(=S)N/N=C(\C)c1ccc(Cl)c(Cl)c1 | 5.61%
33 | Cc1ccc(CNC(=O)C2CCCN2S(=O)(=O)c2ccc(Cl)cc2)cc1 (stereo not shown) | 3.25%
34 | CC1=C(C)/C(=N/OC(=O)c2cccc([N+](=O)[O-])c2)C=CC1=O | 6.55%
35 | NC(=S)N/N=C\c1ccc(-c2cccc(Cl)c2Cl)o1 | 7.08%
36 | O=C(NCc1nnc(SCC(=O)N2CCCCCC2)o1)c1ccc(F)cc1 | 18.2%
37 | O=C(CSc1nc2ccccc2s1)Nc1ccc(N2CCOCC2)c(Cl)c1 | 32.5%
38 | Cc1nc2c([nH]c3ccc(Br)cc32)s1 | 7.93%
39 | CC(C)(C)N(Cc1ccccc1)C(=O)COC(=O)CNS(=O)(=O)c1ccc2ccccc2c1 | 2.64%
40 | CC(C)CCC(CCNCc1ccccn1)c1ccc(Cl)cc1 (stereo not shown) | -80.4%
41 | O=C(O)c1cccc(NC(=S)NC(NC(=O)c2ccccc2[N+](=O)[O-])C(Cl)(Cl)Cl)c1 (stereo not shown) | 0.625%
42 | O=c1oc2c(CN3CCOCC3)c(O)ccc2c2c1CCC2 | -0.869%
43 | C[C@@H](NC(=O)CN1C(=O)c2ccccc2S1(=O)=O)c1ccccc1 | 7.92%
44 | COc1cc(OC)cc(C(=O)N[C@H](C(=O)OCC(=O)NC(=O)NC(C)(C)C)C(C)C)c1 | -5.41%

Row | SMILES | hERG current change (%, negative = inhibition) at 10uM
45 | CCCCCCNS(=O)(=O)c1ccc(NC(=O)C2CCCO2)cc1 (stereo not shown) | -21.8%
46 | c1ccc(NC2=Nc3ccccc3CS2)cc1 | 23%
47 | CCCCN(C)C(=O)C1CCN(Cc2ccccn2)CC1.O=C(O)C(=O)O | -4.27%
48 | CC1C(=O)N2CCCc3cc(S(=O)(=O)Nc4ccccc4F)cc1c32 (stereo not shown) | -0.844%
49 | Cc1cc(C)c2c(CN3CCOCC3)cc(=O)oc2c1C | -3.4%
50 | Cc1cc(C)c(S(=O)(=O)Nc2ccc(O)cc2)cc1C | -18.3%
51 | CC(C)[C@H](NC(=O)c1nn(Cc2ccccc2)c(=O)c2ccccc12)C(=O)O | 14.5%
52 | CCCC(CCC)=NNC(=O)CN(Cc1ccccc1)S(=O)(=O)c1ccccc1 | -16.3%
53 | O=C(CC1C(=O)NC2CCCCC2N1C(=O)c1ccc(F)cc1)Nc1ccccc1 (stereo not shown) | 11.5%
54 | COc1ccc(-c2cn3c(C)c(C(=O)Nc4ccncc4)sc3n2)cc1 | -13.9%
55 | COC1CCN(C(=O)C2CCC(=O)N(CCc3cccc(F)c3)C2)CC1 (stereo not shown) | 14%
56 | CCC(CC)NC(=O)c1cccc(Br)c1 | 20.2%
57 | CCOC(=O)c1nc(C)n(-c2ccc(Cl)cc2Cl)n1 | 8.75%
58 | Cc1ccc(C(=O)N2CCN(C(=O)CN3CCCC3)C2)cc1 | 7.45%
59 | O=C1NC(=O)c2c(NC(=O)C3CCCO3)cccc21 (stereo not shown) | -8.43%
60 | Cc1ccc(S(=O)(=O)NCCc2nnc3ccc(SCc4cccnc4)nn23)cc1 | 5.33%
61 | Cc1ccc(N2C(=O)C3C4C=CC(CC4)C3C2=O)c([N+](=O)[O-])c1 (stereo not shown) | 10.4%
62 | COc1ccc(CNS(=O)(=O)c2ccc(C)cc2)cc1 | -2.72%
63 | N#CC(C(=O)C12CC3CC(CC(C3)C1)C2)c1nc2ccccc2[nH]1 (stereo not shown) | 4.32%
64 | Cc1cccc(N2CCN(C(=O)C3CCN(c4ncnc5c4nc4n5CCCCC4)CC3)CC2)c1C | -14.6%
65 | CCCCCNC(=O)c1ccc2c(=O)n(CCOC)c(=O)[nH]c2c1 | 2.72%
66 | CC1(C)CC(=O)C(C=NCCC2=CCCCC2)=C(O)C1 | 24.5%

Row | SMILES | hERG current change (%, negative = inhibition) at 10uM
67 | COc1ccc2nc(SCC(=O)Nc3ccccc3C#N)[nH]c2c1 | -4.87%
68 | O=C(c1cc2ccccc2[nH]1)N1CCOCC1 | 1.56%
69 | [O-]/[N+](=C\c1ccc(F)cc1)c1ccccc1 | 8.09%
70 | Cc1cc(S(=O)(=O)N2CCOCC2)ccc1OCC(=O)N1CCC(C)CC1 | 6.4%
71 | CCOc1ccc(-c2nc(S(=O)(=O)c3ccccc3)c(N3CCC(C(N)=O)CC3)o2)cc1 | -23.7%
72 | O=C(NC(=S)Nc1ccccc1C(=O)O)c1ccc2ccccc2c1 | 5.25%
73 | CN1C(=S)SC(/[N+]([O-])=C\c2ccccc2)C1(C)C (stereo not shown) | -15.4%
74 | O=C(CSc1ccc(-c2ccccn2)nn1)Nc1ccc(F)cc1F | 2.47%
75 | CCOC(=O)c1c(S(=O)(=O)NCC(=O)Nc2ccc(F)cc2)c(C)n(C)c1C | 14.5%
76 | C=CCN1C(=O)c2ccc(C(=O)OCC(=O)N3CCN(c4ccccc4)CC3)cc2C1=O | 7.02%
77 | CCOC(=O)c1cc(S(=O)(=O)Nc2ccc(F)cc2F)cn1C | 0.0232%
78 | COc1ccc(S(=O)(=O)N(CCc2ccccc2)CC(=O)NC(C)C)cc1 | -17.8%
79 | O=C(OCC#CCSc1nnc(-c2ccncc2)o1)c1cccs1 | -53.2%
80 | O=S(=O)(c1ccc2c(c1)OCCO2)N1CCN(c2nc3ccccc3s2)CC1 | 6.93%
81 | CCCCn1c(SCC(=O)O)nc2ccccc21 | 15.2%
82 | CC(=O)N1CCN(C(=O)c2c(-c3ccccc3)noc2C)CC1 | -1.62%
83 | Cc1ccc(C(=O)OCC(=O)N(CC(C)C)c2c(N)n(Cc3ccccc3)c(=O)[nH]c2=O)cc1[N+](=O)[O-] | 9.14%
84 | COc1cc(NC(=O)c2c(F)cccc2F)c(Cl)cc1Cl | 15.8%
85 | COc1ccc(N(CC(=O)NCc2ccc(Cl)cc2)S(=O)(=O)c2c(C)n[nH]c2C)cc1 | -57.4%
86 | CCN(C(=O)CSc1cc(C)c2ccc(OC)cc2n1)C1CCS(=O)(=O)C1 (stereo not shown) | -11.7%
87 | COc1ccc(S(=O)(=O)N2CCC(C(=O)Oc3cccc(C)c3)CC2)cc1OC | 19.1%
88 | COc1ccccc1C(=O)Nc1ccc2oc(-c3ccc(F)cc3)nc2c1 | 3.72%
